Results taken from the BET-seq Pho4 binding data (Le et al. 2018).
The list shows a part of the results. The energies were worked out here from pooled read counts, against the library average; single values are noisy.

The sequences below were run against T1, Pho4 (S. cerevisiae) (UniProt P07270) (assay: relative binding free energy (BET-seq); higher = weaker binding). Details: reference: library average.
T1 sequence: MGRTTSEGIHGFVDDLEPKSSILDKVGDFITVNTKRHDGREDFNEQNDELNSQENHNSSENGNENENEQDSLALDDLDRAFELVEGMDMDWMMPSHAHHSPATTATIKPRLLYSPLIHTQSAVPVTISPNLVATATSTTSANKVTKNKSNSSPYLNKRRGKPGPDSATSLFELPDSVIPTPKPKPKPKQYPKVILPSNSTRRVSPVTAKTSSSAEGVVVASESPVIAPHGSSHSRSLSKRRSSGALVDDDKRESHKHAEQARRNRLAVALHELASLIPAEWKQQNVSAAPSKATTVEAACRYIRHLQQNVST

Sequence | relative binding free energy [kcal/mol]
CGTGTCACGTGAATGT | 0.17
AAAGTCACGTGATATG | 0.19
GTCGACACGTGTTTGT | 0.09
CATAGCACGTGTATGT | -0.08
GGAAGCACGTGGGTGT | -0.2
TGAGCCACGTGGTGGT | -0.11
ATGAGCACGTGATGTA | 0.04
GTCGTCACGTGTCGTA | 0.23
TAGGGCACGTGCTTGT | -0.23
GGGTTCACGTGAGTGG | 0.39
CAGGTCACGTGTGGCA | 0.19
ATTTGCACGTGTTGCA | -0.04
ATTCGCACGTGGTAGG | -0.18
GCTTGCACGTGGTATT | -0.12
TCTGGCACGTGTTGCA | -0.04
GTGGTCACGTGGATTA | 0.31
AATCGCACGTGCAGGT | 0.13
TATCGCACGTGATAGG | 0.04
TTTGCCACGTGGCTGG | -0.07
CGTGGCACGTGTCGGG | -0.01
TTGGGCACGTGTCAGC | 0.03
TGAGGCACGTGGGTAC | -0.21
GTGCCCACGTGGGCGG | -0.16
GAGGGCACGTGAAGCA | 0.29
GGAACCACGTGGGTGG | -0.26

Sequence | relative binding free energy [kcal/mol]
TGTAACACGTGATCGT | 0.01
GTCTTCACGTGGGTTC | 0.26
AAGAACACGTGTGTTT | -0.12
GTACTCACGTGGGGGG | 0.07
TTAGACACGTGGTTGT | -0.17
GGTGGCACGTGTTTAT | -0.07
CGGTACACGTGGGAAT | 0.08
ATTTGCACGTGGCATG | -0.14
GTCGCCACGTGGGGTT | -0.16
GTTGACACGTGCGTAT | 0.03
TTACACACGTGGGGAT | -0.12
TGTAGCACGTGAGTGC | 0.06
CTGGACACGTGTGCGG | -0.07
GTTTCCACGTGGGGTG | 0.07
GGGAACACGTGTGGTT | 0.2
TATGCCACGTGAAGGG | 0.02
GAATTCACGTGTTAGA | 0.48
GTTTACACGTGAGTCG | 0.37
GTTTTCACGTGGTGAG | 0.21
TAGCACACGTGGGAGG | -0.12
TAATTCACGTGTACGT | 0.22
GTTGGCACGTGCGAAG | -0.08
GACAGCACGTGTTGGG | 0.11
TTGCACACGTGGATAG | 0.16
CATTACACGTGTTGTA | 0.13

Sequence | relative binding free energy [kcal/mol]
GAGGCCACGTGGGGTT | -0.16
AGTTTCACGTGTTTTG | 0.3
ACTGTCACGTGTTAAT | 0.17
AGGTGCACGTGATTGG | 0.06
GTTTTCACGTGAGGGC | 0.29
AGGGCCACGTGTGTTG | -0.18
GATGGCACGTGTAAGC | 0.11
GGTGACACGTGTGGAG | 0.19
AGCGTCACGTGCGGAG | 0
TAGTTCACGTGTGCCG | 0.36
ATGCGCACGTGTTCGT | -0.1
TGTAACACGTGATAAG | 0.22
AATGCCACGTGTATTT | 0.11
TTGGTCACGTGTTTGT | 0.14
GGGTGCACGTGTCGGC | 0.11
CGGTTCACGTGTGGCA | 0.4
GTTAGCACGTGGGATT | 0
TTGTACACGTGGTTTA | 0.08
AGGGCCACGTGGTTGA | -0.15
GTGGGCACGTGGACTT | -0.06
ATGGTCACGTGTAAAT | 0.31
TTACTCACGTGAGGTT | 0.35
TATCACACGTGCGGTA | 0.14
CGTGTCACGTGCGTTA | 0
ATCTTCACGTGGTGAA | 0.25

Sequence | relative binding free energy [kcal/mol]
TGGCTCACGTGTTGTA | 0.21
ATATACACGTGTGCAT | 0.06
TGAGACACGTGGTGTC | -0.05
TGAGCCACGTGGGCGT | -0.3
ACGGTCACGTGAGGCG | 0.24
AGTCTCACGTGTCGTG | 0.25
TTTGTCACGTGTTTTT | 0.13
TAATTCACGTGCGGGG | 0.2
TGGATCACGTGGTGGC | 0.15
GGATTCACGTGCATGG | 0.26
GGTGGCACGTGTTGTG | 0.09
TGTGGCACGTGCGATA | -0.08
AGGAGCACGTGAGGCG | 0.12
TAGGGCACGTGTCTCG | -0.18
CTTTTCACGTGTTAGC | 0.3
TAAATCACGTGTGATT | 0.43
AAAGACACGTGTAGGT | 0.1
AGGTGCACGTGCGTGG | -0.09
CGGGGCACGTGGTTAG | -0.24
AGCAACACGTGGCGGG | -0.05
CGTGGCACGTGTGTTT | -0.13
TGGTCCACGTGTGTTT | 0.23
TTGCGCACGTGGGTAA | -0.24
TTTCACACGTGTTTTC | 0.17
AGACGCACGTGTGGAG | 0.04

Sequence | relative binding free energy [kcal/mol]
CGTATCACGTGGTGCG | -0.06
GTATGCACGTGATCAT | 0.07
CGAAGCACGTGGGGTG | -0.3
TTAGGCACGTGACATG | 0.03
TGATCCACGTGGGCGT | -0.06
TTTGTCACGTGTCTAA | 0.09
GAGGGCACGTGGAATA | -0.01
TGTGCCACGTGAGGGG | 0.11
GGTGGCACGTGAAGCT | 0.3
AGGTGCACGTGGGAGA | -0.12
TTTGGCACGTGAAAGG | 0.32
CTTGGCACGTGATTTT | -0.08
GTGGTCACGTGGTTCA | 0
GCCGGCACGTGGAGTG | -0.08
AAGTTCACGTGATGTA | 0.25
CGTAGCACGTGGCGTG | -0.2
CGGCGCACGTGGCGGG | -0.29
TTTGACACGTGAGGAG | 0.2
TTCGTCACGTGAGATA | 0.44
CCGTCCACGTGTGGGG | 0.12
GGGATCACGTGTAGAA | 0.28
TGTGACACGTGCTGTA | -0.14
AGTAACACGTGTTGAA | -0.01
GAATTCACGTGTAGGA | 0.31
TGTAACACGTGGTCTG | -0.16

Sequence | relative binding free energy [kcal/mol]
GGGAGCACGTGCGGCG | -0.06
CGATGCACGTGTTGAG | 0.06
TTCTACACGTGAGGTG | 0.1
AGAGGCACGTGAGTAG | 0.09
GTGGACACGTGAGAGT | 0.32
GGTAGCACGTGAGAGG | 0.15
GTGATCACGTGGATCG | 0.16
GGGGACACGTGGGCAT | -0.02
CAGGTCACGTGTGCGT | -0.02
GTATCCACGTGTTTTT | 0.06
TAAGTCACGTGTACAT | 0.13
TGGAGCACGTGTTGGG | -0.02
GTGTGCACGTGGTACA | 0.02
GTTGTCACGTGCTATT | 0.18
CGTGACACGTGTCTGG | 0.05
AGGGCCACGTGTGTGA | -0.17
TCTTGCACGTGTGGGG | 0.07
CATGTCACGTGGGCGT | -0.04
GGTTGCACGTGTCTGC | 0.17
GCAGGCACGTGATGTT | 0.12
GGGCACACGTGTTGGT | 0.24
